# Measured values from the supplement of paper PMC5499739.
# Whole data set: some 16,000 sequences, median “Z-score” near -0.37, cut for the highest 2% near 3.1. The list shows a part of the results.
# Test system: RBM10 RRM1-ZnF-RRM2 (GST-tagged construct)
# Test: RNAcompete 7-mer binding Z-score; higher = stronger binding preference
# Protocol: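 RNAcompete: 20 pmol GST-tagged RBM10 RNA-binding constructs were incubated with a designed RNA pool of about 241,000 sequences up to 41 nt (1.5 nmol) on glutathione beads for 30 min at 4 °C and washed. Bound RNAs were identified by microarray hybridisation. Each RNA 7-mer is scored by a one-sided Z-score of its enrichment, computed over probes that contain the 7-mer within longer pool sequences.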
row,Sequence,RNAcompete 7-mer binding Z-score
1,AGACAAA,0.111
2,CCUGACU,-0.843
3,CUGAUCA,-0.57
4,GAAGUCG,0.428
5,UCUCCUU,-0.774
6,CGUCUAC,-0.715
7,UCCUGAG,-0.522
8,GAGUAAU,0.323
9,GCUCACU,-0.846
10,CUAUUCG,-0.795
11,GAAGUAG,1.39
12,UGAUUCA,-0.541
13,UUACCCA,-0.821
14,CCUUAGU,-0.752
15,CCAGUAA,-0.508
16,CAGUUUU,-0.715
17,AAUUUCC,-0.683
18,AGUGGAU,2.33
19,UGGGUCG,2.13
20,ACAAUCC,-0.639

row,Sequence,RNAcompete 7-mer binding Z-score
1,CCCAUGA,-0.668
2,AGAAUCA,0.0167
3,UUAUCAA,-0.49
4,AGAAGGU,3.67
5,GUCGAAG,0.621
6,UUGCCAA,-0.592
7,GGGAGGA,3.24
8,GUCAAGC,-0.195
9,CAUGGAC,0.578
10,CUACUAA,-0.697
11,AGAACUA,-0.602
12,GGAGUAG,2.98
13,CUAUGUG,-0.369
14,GUGUAAU,0.0131
15,CCUGUUG,-0.923
16,GAUUGCG,0.268
17,UUUCAAC,-0.777
18,UGUGCUC,-0.544
19,AGUUUAU,-0.453
20,UCCGAUC,-0.679

row,Sequence,RNAcompete 7-mer binding Z-score
1,UCAUAUG,-0.384
2,GAGCCUC,-0.905
3,CCAUUAA,-0.701
4,UCUCUAA,-0.683
5,CUUCGUA,-0.628
6,UCGUCGA,-0.0998
7,GAGGAAC,1.82
8,GUAAAGC,0.341
9,GAAGAAU,0.447
10,GAUGCUA,-0.442
11,CUCCACG,-0.766
12,AUCGCGC,-0.471
13,UGCGUUG,0.104
14,GCGAGGC,1.59
15,GGACUUG,0.319
16,GGACGUU,0.497
17,GUUCAGC,-0.224
18,GCAAUGU,0.436
